About 14,000 (4.5%) of roughly 310,000 compounds showed an effect of 50% or more. The effect is printed as a negative number. Some of the results follow.
molecular target: human ether-à-go-go-related gene (hERG) potassium channel (human, UniProt Q12809); test: primary screen, population patch clamp on CHO cells stably expressing hERG
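Note: peak tail current of the secondary pulse compared with the same well before compound.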

human ether-à-go-go-related gene (hERG) potassium channel, sequence (Q12809 whole entry, looked up): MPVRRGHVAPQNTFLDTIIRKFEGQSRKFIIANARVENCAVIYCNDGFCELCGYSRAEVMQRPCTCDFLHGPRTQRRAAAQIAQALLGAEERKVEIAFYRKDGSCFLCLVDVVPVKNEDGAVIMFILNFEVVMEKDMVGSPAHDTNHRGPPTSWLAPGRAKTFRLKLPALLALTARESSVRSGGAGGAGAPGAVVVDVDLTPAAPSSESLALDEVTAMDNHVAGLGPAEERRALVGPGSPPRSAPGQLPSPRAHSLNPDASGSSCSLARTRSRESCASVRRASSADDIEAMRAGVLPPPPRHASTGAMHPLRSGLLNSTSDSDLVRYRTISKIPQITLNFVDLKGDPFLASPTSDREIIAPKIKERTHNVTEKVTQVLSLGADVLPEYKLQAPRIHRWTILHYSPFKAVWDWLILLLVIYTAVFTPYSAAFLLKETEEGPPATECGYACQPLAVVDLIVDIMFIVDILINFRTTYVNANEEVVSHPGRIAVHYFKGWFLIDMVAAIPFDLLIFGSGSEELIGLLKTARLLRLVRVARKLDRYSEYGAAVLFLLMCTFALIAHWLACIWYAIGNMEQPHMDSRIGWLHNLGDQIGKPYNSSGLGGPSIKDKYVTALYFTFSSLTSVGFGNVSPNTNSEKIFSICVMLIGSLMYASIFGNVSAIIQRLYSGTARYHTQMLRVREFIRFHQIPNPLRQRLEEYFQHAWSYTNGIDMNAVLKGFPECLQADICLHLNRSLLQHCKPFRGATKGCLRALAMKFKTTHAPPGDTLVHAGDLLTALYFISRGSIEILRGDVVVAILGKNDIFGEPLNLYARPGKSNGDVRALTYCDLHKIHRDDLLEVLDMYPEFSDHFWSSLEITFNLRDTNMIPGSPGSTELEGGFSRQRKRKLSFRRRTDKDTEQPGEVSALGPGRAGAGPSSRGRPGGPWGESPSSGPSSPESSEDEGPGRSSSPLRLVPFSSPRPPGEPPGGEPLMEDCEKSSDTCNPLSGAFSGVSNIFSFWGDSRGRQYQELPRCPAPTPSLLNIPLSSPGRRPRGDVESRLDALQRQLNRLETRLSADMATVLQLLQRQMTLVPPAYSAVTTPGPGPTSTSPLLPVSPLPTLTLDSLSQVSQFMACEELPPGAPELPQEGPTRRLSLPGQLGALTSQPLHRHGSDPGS

Row | Compound | hERG current change (%, negative = inhibition) at 10uM
1 | CCN(Cc1ccccc1)C(=O)C1CCN(CC2CC=CCC2)CC1.O=C(O)C(=O)O (centres unmarked) | -46.9%
2 | CC(=O)Nc1ccc(S(=O)(=O)NNC(=S)NCc2ccco2)cc1 | 12.1%
3 | COC(=O)C1C(O)=C(C=Nc2ccc3ccccc3c2)C(=O)CC1(C)C (centres unmarked) | -8.23%
4 | O=C(O)CC(C(=O)N(c1ccccc1)c1ccccc1)N1CCOCC1 (centres unmarked) | 3.94%
5 | COc1cc2c(c(OC)c1OC)-c1c(cc3c(c1OC)OCO3)C1OC2[C@@H](C)[C@H]1C (some centres unmarked) | -4.76%
6 | Cc1ccc(/C=N/N2CCN(c3ccc(Cl)cc3)CC2)o1 | 6.28%
7 | CCOC(=O)CC(=O)CSc1nc(-c2cccnc2)ccc1C#N | 17.5%
8 | COCCNC(=O)Nc1ccc2nc(-c3ccco3)c(-c3ccco3)nc2c1 | 4.08%
9 | O=C(CSc1nnc(CNC(=O)c2c(F)cccc2Cl)o1)NCc1ccc(F)cc1 | 7.58%
10 | COc1ccccc1CNC(=O)Cn1cc(Br)ccc1=O | 6.88%
11 | CCOc1ccc(NC(=O)N2CCC(NC(=O)C(Cc3ccc(OC)c(OC)c3)NC(C)=O)CC2)cc1 (centres unmarked) | 8.15%
12 | CCn1nc(C)c(/C=N/NC(=O)CSc2ccccn2)c1C | 12.7%
13 | O=C(CCc1nnc(CCCc2ccccc2)o1)NCCc1ccco1 | -10.5%
14 | Cc1ccc(-n2c(C)nc3c(cnn3-c3ccccc3Cl)c2=O)cc1C | 10.6%
15 | Cc1cc(C)n2nc(C(=O)N/N=C/c3ccc(Cl)cc3)nc2n1 | -37.2%
16 | COc1ccc(S(=O)(=O)Nc2cc3c4c(oc3c3ccccc23)CC(C)(C)CC4=O)cc1 | -3.05%
17 | Cc1nnc(NC(=O)C2CC(=O)N(c3ccccc3)C2)s1 (centres unmarked) | 3.67%
18 | CCOc1ccccc1NC(=O)c1sc2ncn(CC(=O)N3CCOCC3)c(=O)c2c1C | -3.36%
19 | CC(C)Cc1nnc(NC(=O)CN2C(=O)c3ccccc3C2=O)s1 | 26.9%
20 | CC1C(=O)Nc2ccc(S(=O)(=O)N3CCN(c4cccc(C(F)(F)F)c4)CC3)cc2NC1=O (centres unmarked) | 5.06%
21 | CC1=NN(/C(=N\c2nnc(C)s2)Nc2ccc(C(C)(C)C)cc2)[C@H](c2ccc(C)cc2)S1 | 5.12%
22 | COc1ccc(-c2n[nH]c3c2C(c2ccc(OC)c(OC)c2)N(c2ccccc2)C3=O)cc1 (centres unmarked) | 3.73%

Row | Compound | hERG current change (%, negative = inhibition) at 10uM
23 | Cc1ccccc1NC(=O)c1sc(NC(=O)C2CC2)nc1C | 11.2%
24 | CCCN1C(=O)c2ccc(C(=O)Nc3ccccc3C(=O)O)cc2C1=O | 29.2%
25 | CCOC(=O)C1=C(C)N(C)C(=O)NC1c1c(C)nn(-c2ccccc2)c1C (centres unmarked) | 4.67%
26 | O=C(C(=O)c1cccnc1)c1cccnc1 | 19.9%
27 | Cc1ccc(SCCC(=O)NCc2ccccn2)cc1 | -14.6%
28 | O=c1c(-c2ccnn2-c2cccc(Cl)c2)cnc2n1CCS2 | 1.04%
29 | NS(=O)(=O)c1cc(C(=O)OCC(=O)c2ccc3c(c2)OCCO3)ccc1Cl | -0.0168%
30 | Cc1cc(C(=O)Nc2ccc(C)c(S(=O)(=O)N3CCOCC3)c2)c2ccccc2n1 | -13.6%
31 | C/C(Cc1ccccc1)=N\NC(=O)CNC(=O)c1ccc(F)cc1 | 8.96%
32 | CCOC(=O)/C=C1\SCC(=O)N1CC(=O)Nc1ccc(OC)c(OC)c1 | 7.5%
33 | COc1ccc(Br)cc1CNC(=O)C1CCCN(S(=O)(=O)N2CC(C)CC(C)C2)C1 (centres unmarked) | 13.8%
34 | CCCCCOc1ccc(/C=C/c2c([N+](=O)[O-])c(=O)n(C)c(=O)n2C)cc1 | 9.47%
35 | COC(=O)c1ccc(Oc2c(C(F)(F)F)oc3c(CN4CCN(C)CC4)c(O)ccc3c2=O)cc1 | 14.3%
36 | CCSCCOC(=O)C1=C(C)N(C)C(=O)NC1c1ccc2c(c1)OCO2 (centres unmarked) | 5.29%
37 | Cn1c(CO)cnc1S(=O)(=O)Cc1ccc([N+](=O)[O-])cc1 | 7.66%
38 | COc1ccc(OC)c(NC(=O)CC(NC(C)=O)c2ccccc2)c1 (centres unmarked) | 17.6%
39 | COc1ccccc1C(=O)Nc1ccnn1C1CCN(C(=O)C(C)(C)C)CC1 | -50.4%
40 | COc1ccccc1OCCCCN1CCN(C(c2ccccc2)c2ccccc2)CC1.O=C(O)C(=O)O | -73%
41 | O=C(COc1ncnc2sccc12)Nc1cccc(S(=O)(=O)N2CCOCC2)c1 | -2.77%
42 | CC(=O)c1cccc(N(CC(=O)NC2CCCCC2)C(=O)CCC(=O)Nc2nc(C)cs2)c1 | -8.84%
43 | CCOC(=O)c1oc2ccccc2c1NC(=O)c1ccccc1OC | 16.6%
44 | CN(Cc1nc2ccccc2n1C)C(=O)c1cccs1 | -8.67%

Row | Compound | hERG current change (%, negative = inhibition) at 10uM
45 | Cc1ccc2cc(NC(=O)c3ccccc3C)ccc2n1 | 11.3%
46 | Cc1ccc(-c2csc3ncnc(NCCN4CCOCC4)c23)cc1 | -15.6%
47 | CNC(=O)/C(C#N)=C\c1ccc(CNS(=O)(=O)c2ccccc2)o1 | -1.95%
48 | CN(Cc1ccccc1)C(=O)CC(=O)N(C)Cc1ccccc1 | -3.79%
49 | Cc1ccc(S(=O)(=O)N2CCN(C(=O)CSc3nc4ccccc4c(=O)[nH]3)CC2)cc1 | -1.1%
50 | CC(=O)OC[C@H]1O[C@@H](Sc2cccc3cccnc23)[C@H](OC(C)=O)[C@@H](OC(C)=O)[C@H]1OC(C)=O | -2.95%
51 | O=C(O)CCSc1nc2ccccc2s1 | 6.98%
52 | CCN(CC)S(=O)(=O)c1ccc(NC(=O)Nc2cccc(C(F)(F)F)c2)cc1 | -2.49%
53 | O=C(Nc1ccccc1)N1CC2CC(C1)c1cccc(=O)n1C2 (centres unmarked) | 9.11%
54 | O=C(N/N=C/C(Cl)=C/c1ccccc1)c1ccccn1 | -36.2%
55 | CCCCON1C(=O)c2cccc3cccc(c23)C1=O | -4.38%
56 | CCOCCCNC(=O)CN1C(=O)NC(Cc2c[nH]c3ccccc23)C1=O (centres unmarked) | -23.7%
57 | COc1ccc(C2CC(C)=C(C#N)S(=O)(=O)C2C#N)cc1 (centres unmarked) | 9.95%
58 | COc1ccc(Cl)cc1NC(=O)Nc1ccccc1SC | 5.83%
59 | CC(=C/c1ccco1)/C=N/NC(=O)CSc1nnc(SCc2ccc(C)cc2)s1 | -3.37%
60 | Cc1ccc(CN2CCSc3ccc(C(=O)NC4CCCC4)cc32)cc1 | -22.7%
61 | CC(=O)NS(=O)(=O)c1cccnc1Nc1ccc(Cl)cc1 | 17.1%
62 | O=C(N/N=C/c1cccc2ccccc12)c1cccnc1 | 1.76%
63 | O=C(Nc1nccs1)c1sc2cc(Cl)ccc2c1Cl | 4.37%
64 | COc1ccc(NC(=O)CCn2ccnc2)c(OC)c1 | 23.2%
65 | Cc1cc(-c2nnc(CCC(=O)NC(C)(C)C34CC5CC(CC(C5)C3)C4)o2)no1 | -2.16%
66 | COc1cc(=O)[nH]c(SC(C)C(=O)Nc2cc(C)on2)n1 (centres unmarked) | 14.4%

Row | Compound | hERG current change (%, negative = inhibition) at 10uM
67 | O=C(c1cc(-c2ccncc2)nc2ccc(Br)cc12)N1CCN(Cc2ccc3c(c2)OCO3)CC1 | -56.5%
68 | CC(C)CCn1c(CN2CCN(Cc3ccccc3)CC2)nc2c1c(=O)[nH]c(=O)n2C | -17.6%
69 | COc1ccc(NC(=O)COCC(=O)Nc2ccc(C)cc2)cc1 | -8.56%
70 | CC(C)NS(=O)(=O)c1ccc(NC(=S)NC(=O)c2ccc(-c3ccccc3)cc2)cc1 | -6%
71 | COCCCNC(=S)Nc1ccc(OC(F)F)cc1C | 7.74%
72 | Cn1ncc(C#N)c1NC(=O)c1nn2cccnc2c1Cl | 10.5%
73 | COCCN(C(=O)c1snc(C(N)=O)c1N)C(C(=O)NC1CCCCC1)c1ccc(OC)c(OC)c1 (centres unmarked) | 9.67%
74 | CCCS(=O)(=O)c1c(S(=O)(=O)CCC)c2ccc(C(N)=O)cn2c1C(=O)c1ccc(F)cc1 | 15.2%
75 | Cl.O=C(O)C1=CCCNC1 | -54.4%
76 | O=C(N/N=C/c1ccncc1)C1CC1C(=O)N/N=C/c1ccncc1 (centres unmarked) | 21%
77 | C=CCn1c(O)c(C(CC)=NCCC2=CCCCC2)c(=O)[nH]c1=O | -13.6%
78 | COc1ccc(-c2cc(-c3ccccc3)c(C#N)c(SCC(=O)O)n2)cc1 | 16.7%
79 | Cc1ccc(F)cc1NC(=O)c1sc2ncn(CC(=O)N3CCN(c4ccccn4)CC3)c(=O)c2c1C | -5.06%
80 | Cc1ccc(C(=O)OCC(=O)NNC(=O)c2ccccc2)c(O)c1 | -30.6%
81 | CC(C)C(=O)Nc1ccc(-c2nc3ccccc3c(=O)o2)cc1 | 26.9%
82 | CN(CC(=O)Nc1ccccc1C(F)(F)F)C(=O)CSCc1ccc(Cl)c(Cl)c1 | 18.5%
83 | CCN(CC)c1ccc(NC(=O)/C=C/c2cc(Br)ccc2OC)cc1 | 4.29%
84 | CCN(CC)c1ccc2c(Cl)cc(=O)oc2c1 | -31.2%
85 | CCOC(=O)c1cnc(SCC(=O)Nc2ccccc2C(=O)OC)nc1N | -13.1%
86 | CCCCC(CC)CNC(=O)CCS(=O)(=O)c1cccc2nonc12 (centres unmarked) | -6.68%
